# Reference: the supplement of paper PMC12632987
# The full ranking holds about 2,300 sequences; the median of “median log2 fold change of GCK-ALFA target abundance (FLAG IP / Myc IP barcode read proportion)” is about 0.095, and the lowest 2% start at about -0.47. This is one part of the list.
# B1: LC3A_28_905 (protein)
# chain: GSSLEEAKKALERVKAAVAAGSQEPLVLEITAPSNQEDVEEFLKLLEELAKEASKLKGVSIIIDIDESVSQENRDKIIDKADELEKKYPNVTVIIALPES
# B2: LC3A_28_662 (protein)
# chain: SAVDERLAAALAEAEAARAAGEPTVVTVEVPGDADEEDIERIIEALERIAKILAPIKGSAIIIDIDGDLDEEHRDRLIDKAEELEEKYPNVTVIIAEEER
# B3: LC3A_132_299 (protein)
# chain: QEEKAEEILKKVKELVEEAKANIDDDEKVKKLLEEIEKLIEEAEKELSPELLAEVMKEVAELLDELSQYFLEKGKEELSMLADGLAIEAESLALRAEKKI
# B4: LC3A_61_2039 (protein)
# chain: EVKEVEWAIPPEEAERANKAFQELLEFAREVDEELAEKLYELVKDNAESESSARYALKVLERAVEELRKAKEEGKPKEELLKIIEDTIDELALIPLDDLK
# B5: LC3A_28_816 (protein)
# chain: MKKEEIIAEIREQAEKALDSDEDALIEVKISGTITKEEAKEIMEVVREEAKRLAEKRKVYIVIDFEEPVDQEVLDLILDKAEEIEEEIEGVDVIVALPET
# B6: LC3A_141_370 (protein)
# chain: KTVTFTKTFTNSSLDEVIAGMEELEKEVLAAHEKLGGGKVKVTVTVTIKNSKTGETKVIKEEFEADKETLEMIMEGVLIEAASARLTENANITVTVTLEA
# B7: LC3A_28_1128 (protein)
# chain: SETDKIIAEIEKQAEEAIEKGEDALIEVTITENITLEDAKRIAEKIEKEAKRLSEKGKVSIVVSFSSESNAEQIDFFGEKAEEIEKKYPNVSVIIALPER
# B8: LC3A_28_806 (protein)
# chain: SPVRENVEKAEKEALEQIEKGEPVFVEITLPADATQEEIDYVTESIRRLAKKAKEAGIKSLSVVVDSANNQEAITAISETEDELRKEGLPINVIIALDEP
# B9: LC3A_141_369 (protein)
# chain: KTVTLKLELKNSSLDEVIEKMEELEEEVLKAYEELGGGKVKVTVTLTFKNSKTGETTVIKEEFEADKEELEMLLEGVLIEAASYRLTENADITVTVTLEA
# B10: LC3A_free_39_2176 (protein)
# chain: SAAALEEAKAELLALAAEEGEETLKIAKEILELIEGNLELVELLVEGLKKIREEGGDVRAALEEILKEIKRLKEEGKSMEEILERVKEILEDFLNLIPLD
# B11: LC3A_6_2068 (protein)
# chain: VRVEVTIDVLLPEENEEEATKKAVKIAEEGIKALEEELKAKGLLGDYFEVKIEVEPGFVKVVVEMEVKEEAVPLVEKMAGEMADELSKVAKAVMLSIEVE
# B12: LC3A_free_8_2515 (protein)
# chain: MNQEFANKATEILEELEEKLVELLKEKGASELDILEAELLIGSAIAEVISLSDKSPEEILKAIRESLEELVEELEEHREEVKELAEEALKKIEEKKKELE
# B13: LC3A_28_736 (protein)
# chain: SEIDENIEKALEEAKKAAEKGEPVVITIKVPGTATQEDIEKVIETLKEIAEILKDVKDQTIIIDIEGGVPQEHIDKLLDAGEEIEEKYPNITVIFALDEE
# B14: LC3A_28_734 (protein)
# chain: SELDKNLEEALKKAKEAAAKGEPVVITITVPGTATEEDIEKVIEAMYEIAEILKDVKDQTIIVDIEGGVKQEHIDKLLDAGEEIEKKYPNVTVIFALDED
# B15: LC3A_28_1008 (protein)
# chain: MSVVEKTKEEAKKALEEAKKGKDAYLEIEITKETTLEEVKEINEIIEKTAKEISKIPNVKLYIVVLDDSNQENHDIMADAMDKIEAEYPNVSSIIAYTDD
# B16: LC3A_3_1770 (protein)
# chain: MEEFIEEVKKKLREEGADEELIEKAARALELLLERGLEETAKEVAEALLELVKKSKELALELAEDVLELLETSDLSPEELAKAVRELIRLALLESEIEEL
# B17: LC3A_28_1198 (protein)
# chain: SAAEETIAAIKKQAAAALAEGDGTVIEVKITKEMTEEDIDKIIATIKEEAAKLADVPAVSIVIDVEAGVPQENITKLANTGDEIEAAYPNITVIIALDED
# B18: LC3A_127_167 (protein)
# chain: KKEELLREAEKAVDELLKLLRDPNATLEEIRAQAEKLLELAKELLKEDPSAKPILEDAESLLETVKKLEKAPEEEKEELREHAEMIAEGILIEVLSLELK
# B19: LC3A_55_2009 (protein)
# chain: MKVDIVLDVDEKTGEITGLEVYVDDAEPAILAALRAAGKELAAELFERAVAAPLGPEEMAALRARYGAEAVKAAVDALIETVRATPGVDLNVIEALNDTS
# B20: LC3A_free_46_2360 (protein)
# chain: AEIDISFLLKGKTEEEAKEFAEELEKRFREAAAAAGADIKIETKIEKDEEGDIFIDVKLTVTAANAAQRQAAVQAILDIVDELSKEKNIAAIVSVEDVAP
# B21: LC3A_free_8_2523 (protein)
# chain: ASQAFADAAVKILDELEEKLVKLLKEKGASRLDILEAELLVGSIIAEVISLVDESIEAILKSIKEGLEELVEELEEHKEEVTKLANEALKKIEEKAKELK
# B22: LC3A_3_1621 (protein)
# chain: LEEEVERALELLKEAGASEETLEAFRETAELLLEKGYEEALKTLIEEMEEIKDLPDEIILDALEEIKEVVETEDLDEEELIEEIKEIFNTARSESEIIEL
# B23: LC3A_132_306 (protein)
# chain: GEELAKELIETAKKALELAKTDPDAKEEILELLKKIEELMKKLAKEASPELAAEAFEEVMDIMLELSRVAAAQGWDEVADEAFALAAEAAQKKAEAEAKL
# B24: LC3A_3_1705 (protein)
# chain: MEELLKEARKVLEEHGKSEETIKAALEALKALLERGFEEAAKTFLELLKESENLSDEILLWMFEDVKKVVADPTKTEEEVIAAIKEIWNIAKNDEEIEEL
# B25: LC3A_141_380 (protein)
# chain: KTETKTKTFKNLPADEAEEKGIAYLEETFAEAKAAGAKTVTITITVTATVDGKTYTRTETFSGDVTNEMILGGAEVFLGLVALQFEGHKLTVTVTVTLTY
# B26: LC3A_147_486 (protein)
# chain: MKVIIDVLVKTKETVEKLKKRMEETKKKLEEKGIEVKLEIKVEEIEPGVYYVEITAEIKAKTKEEEQKAAQEVVDTVLDFEEENKDLVLGTLISIEETEE
# B27: LC3A_147_404 (protein)
# chain: VLAEIDIDILTKKGPELVEKLVEEIRERLEEMGVEVEIELKTEKIDEDTYFHEIKIKLRAETKEEAEEAVNEVLDIIDEFEEKNKDEILGSLISVEIKEE
# B28: LC3A_147_466 (protein)
# chain: YKVELTIDVLAKEKYEEALELLKEFAEKVKELGLDVKVKIREEKISENEVYLELEVEIETETLEEAEEAAKKVSELADELSEKLEELGAAVMISIDIEEA
# B29: LC3A_free_8_2501 (protein)
# chain: KSQEVVKEALEGLDKLEEELIKKAKELGLSELDILELELEIGSVKAEIISLSDKSPEEIVKETKEGLERVIELAKELSEELAKLAKELSEEILKRLEKLL
# Target: MAP1LC3A, Q9H492
# Assay: median log2 fold change of GCK-ALFA target abundance (FLAG IP / Myc IP barcode read proportion) (log2 ratio); each designed protein is fused to an ALFA-tag nanobody in HEK293 cells to bring the named protein to FLAG-tagged glucokinase (GCK); Myc marks an untargeted standard; higher = target protein stabilised (more abundant)
# Conditions: target protein: 3xFLAG-MCP-GCK-ALFA reporter; HEK293 landing pad (RPLP)
# Outline: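 HEK293 landing-pad cells received a recombined binder library fused to the ALFA nanobody and were induced with 2 μg mL^−1 doxycycline, then transfected with a plasmid encoding a FLAG-tagged target and a Myc-tagged standard. Lysates were collected after 48 h for anti-FLAG and anti-Myc immunoprecipitation, and the circular RNA barcodes were reverse transcribed, amplified and sequenced. Target abundance for each binder is the median log2 ratio of FLAG to Myc barcode read proportions. Barcodes had to reach a proportion of at least 10^−7 in both replicates, each binder needed at least 3 barcodes per replicate, a pseudocount of 10^−6 was applied, and the two replicates were pooled.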
row,Binder,median log2 fold change
1,B1,-0.141
2,B2,-0.324
3,B3,0.229
4,B4,0.267
5,B5,-0.0051
6,B6,-0.474
7,B7,0.226
8,B8,-0.339
9,B9,-0.618
10,B10,0.19
11,B11,0.184
12,B12,0.159
13,B13,-0.121
14,B14,-0.00474
15,B15,-0.306
16,B16,0.189
17,B17,0.149
18,B18,0.172
19,B19,0.282
20,B20,0.146
21,B21,-0.0394
22,B22,-0.465
23,B23,0.0777
24,B24,0.202
25,B25,-0.241
26,B26,-0.298
27,B27,-0.269
28,B28,0.065
29,B29,0.00892
